This note sets out measurements from the supplement of paper PMC4723716.

The full ranking holds about 3,600 compounds; the median of “viability index relative to DMSO control” is about 0.81, and the lowest 2% start at about 0.13. The list shows a part of the results.
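Also: 384-well serum-free SaLSSA: MitoTracker Red CMXRos staining with saponin lysis, high-content imaging, treated-well particle count divided by plate-mean count of DMSO wells.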

This assay deals with Plasmodium falciparum NF54 stage V gametocytes. Description: viability index relative to DMSO control (fraction); higher = less gametocyte killing. The settings on record: 1.25 µM, incubation time: 72 h.
Compound `Cc1ccc(N2C(=O)C3C(C2=O)C2(c4ccccc4)C(=O)C3(c3ccccc3)C(c3ccccc3)=C2c2ccccc2)c([N+](=O)[O-])c1` (stereo not given) showed a viability index of 0.939.

As to `O=C(O)c1ccc(NC(=O)c2ccc(N3C(=O)C4C5C=CC(C5)C4C3=O)cc2)cc1` (stereo not given), the viability index stood at 1.06.

The compound `CCCc1cc(-c2onc(C)c2-c2ccc(C(=O)OCC)o2)c(O)cc1OC` displayed a viability index of 0.726. `Cc1cc(C)n(CC(O)Cn2c3ccc(I)cc3c3cc(I)ccc32)n1` (stereo not given) registered a viability index of 0.717. Consider `O=C(CCN1C(=O)C2CCCCC2C1=O)N1CCc2ccccc2C1` (stereo not given), for which the viability index turned out to be 0.906.

`O=C1CC(c2ccccc2)CC2=C1C(c1ccccc1F)Nc1ccccc1N2` (stereo not given) yielded a viability index of 0.551. As for `COc1cccc(NC(=O)c2ccc(NCCCC3CCCCCC3)c([N+](=O)[O-])c2)c1`, the figure is 0.743; as for `CCc1cc2c3c(c1)C1(C(=O)N3C(C)(C)CC2C)C(C#N)=C(N)Oc2cc(C)oc(=O)c21` (stereo not given), 1.13; as for `COc1cc2c(cc1OC)-c1cc3ccc(OC)c(OC)c3c[n+]1CC2`, 0.942. `COc1ccc(NC(=O)NCc2cccn2Cc2ccc(F)cc2)cc1OC` came in with a viability index of 0.952. Compound `CCN1C(=Cc2ccc3cc(C)ccc3[n+]2C)Sc2ccc3ccsc3c21` displayed a viability index of 0.297. Compound `Cc1ccc(C)n1-c1ccc(N(C)C)cc1` registered a viability index of 0.616. As for `O=c1c(=Cc2ccc(Cl)cc2)sc2nc3ccccc3n12`, the figure is 0.804; as for `COc1ccc(NC(=O)c2c(Cl)nc(Cl)c([N+](=O)[O-])c2C)cc1`, 0.919; as for `CC1=C(C(=O)OC(C)C)C(c2cccc([N+](=O)[O-])c2)C2=C(CCCC2=O)N1` (stereo not given), 0.66.

For `O=[N+]([O-])c1cccc2c(S(=O)(=O)NCCCN(CCO)CCO)cccc12`, the viability index amounted to 0.657. The compound `CCCCSc1ncnc2c1c(-c1ccccc1)cn2-c1cccc(F)c1` yielded a viability index of 1.1. In the case of `Cc1cc(N2CCN(C3CCCC3)CC2)n2c(nc3ccccc32)c1C#N`, the viability index worked out at 1.12. Regarding `COC(=O)C1=C(C)N(C)C(C)=C(C(=O)OC)C1c1ccc(C)cc1`, the viability index stood at 0.679. `Nc1nonc1-n1nnc(-c2ccccc2)c1C(=O)NN=Cc1ccc(F)c(Br)c1` showed a viability index of 0.717. `Cc1ccnc(NC(c2cccc(Cl)c2Cl)c2ccc3cccnc3c2O)c1` (stereo not given): the viability index worked out at 0.898. `CCOC(=O)c1c(CNC)n(C)c2cc(Br)c(O)cc12` had a viability index of 0.301. In turn, `COc1cc(C(=O)N2N=C(c3c(-c4ccccc4)c4cc(Br)ccc4[nH]c3=O)CC2c2cccc([N+](=O)[O-])c2)cc(OC)c1OC` (stereo not given) showed a viability index of 0.543.

The compound `COc1ccc2cc(CNCCCO)c(N3CCN(c4ccc(F)cc4)CC3)nc2c1` registered a viability index of 0.663. For the compound `CCOC(=O)c1c(C)n(-c2ccccc2)c2ccc(O)cc12`, the viability index stood at 0.846. In turn, `Cc1cc(N2CCN(Cc3ccc(F)cc3)CC2)n2c(nc3ccccc32)c1C#N` registered a viability index of 0.861. Compound `CCCCCCN(CCCCCC)CC(O)c1cc(-c2ccc(Cl)cc2)nc2c(C)cc(C)cc12` (stereo not given) had a viability index of 0.738.

`COc1ccc2ccc(OC)c(C3C(C#N)=C(N)OC4=C3C(=O)CC(C)(C)C4)c2c1` (stereo not given) registered a viability index of 0.859. To `CC1=NN(c2ccccc2)C(=O)C1=NNc1c(Br)cc(Br)cc1Br` belongs 0.819. `CCSc1nc2sc3c(c2c(=O)n1-c1ccccc1)CCN(Cc1ccccc1)C3` yielded a viability index of 0.57. In turn, `COCCOC(=O)C1=C(C)NC2=C(C(=O)CC(c3ccc(OC)cc3)C2)C1c1ccc(F)cc1` (stereo not given) registered a viability index of 0.796.

As to `CCOc1ccc(S(=O)(=O)Oc2cccc3cccnc23)cc1`, the viability index came out at 1.11. Consider `Cc1cc(N2CCCCC2)nc2ccc(NC(=O)c3cccc([N+](=O)[O-])c3)cc12`, for which the viability index is 0.787.

On to `CCN1C(=Cc2ccc3ccccc3[n+]2CC)Sc2c1ccc1ccccc21`, for which the viability index worked out at 0.401. To `O=C(O)CSc1ccc(C(=O)NC2CCCCNC2=O)cn1` (stereo not given) belongs 0.774. Compound `Oc1cccc(-c2nc(-c3ccccc3)c(-c3ccc4oc5ccc(-c6[nH]c(-c7cccc(O)c7)nc6-c6ccccc6)cc5c4c3)[nH]2)c1` showed a viability index of 0.859. With `N=c1n(CCN2CCCC2)c2ccccc2n1CC(O)c1ccc(Cl)c(Cl)c1` (stereo not given), the viability index is 0.602. Turning to `Nc1c(C(=O)c2ccc(Br)cc2)sc2nc(-c3cccnc3)ccc12`, the viability index worked out at 0.776. Compound `O=C(O)CCCNC(=O)C(O)(c1ccccc1)c1ccccc1` had a viability index of 1.16.

`COc1ccc(C(=O)NCCc2ccc(C)cc2)cc1OC1CCN(C(C)=O)CC1`: the viability index was 0.913. As for `Clc1ccc2[nH]c3c(NCCCN4CCOCC4)ncnc3c2c1`, the figure is 0.915; as for `CCCOC(=O)C1=C(C)NC2=C(C(=O)CC(c3ccc(Cl)cc3)C2)C1c1ccccc1F` (stereo not given), 0.624; as for `CCCCCCc1cc2cc(-c3nc4ccccc4[nH]3)c(=Nc3ccccc3C)oc2cc1O`, 0.728. To `CCNC(=O)C=Cc1ccc(C(C)(C)C)cc1` belongs 0.635.

`CCc1c(C(C)S(=O)(=O)c2ccc(C)cc2)[nH]c(=O)n1-c1ccc(OC(F)(F)F)cc1` (stereo not given) displayed a viability index of 0.988.

`CCOC(=O)c1cnc2ccccc2c1Nc1ccc(C(C)=O)cc1` had a viability index of 0.698. In turn, `CC1=C2C(=O)c3ccccc3C2NC(=O)N1` (stereo not given) displayed a viability index of 1.09.

`O=C1C2C(C(=O)N1c1ccc(Br)cc1)C1C=CC2C12CC2` (stereo not given) showed a viability index of 0.796. Take `O=c1c2ccccc2nc2n1CCN2Cc1ccc(Cl)cc1`: the viability index was determined as 0.623. Consider `CC(=O)c1cccc(S(=O)(=O)NCCCNc2nc3cc(C)cc(C)c3cc2C#N)c1`, for which the viability index turned out to be 0.656. Compound `Cc1cccc(Nc2ccccc2C(=O)OCC(=O)N2CC(=O)Nc3ccccc32)c1C` gave a viability index of 1. For the compound `O=C1C2C(C(=O)N1c1ccc(Cl)c(C(F)(F)F)c1)C1(c3ccccc3)C(=O)C2(c2ccccc2)C(c2ccccc2)=C1c1ccccc1` (stereo not given), the viability index was determined as 0.706. For `CCc1c(C#N)c(N)nc(SCC(=O)c2ccc(C)cc2)c1C#N`, the viability index came to 0.848. `Cc1ccc(Nc2nc(NCc3ccco3)c3ccccc3n2)cc1` returned a viability index of 0.785. In turn, `COc1cc(OC)cc(-n2nc(C(=O)NCCCN3CC(C)CC(C)C3)c3ccccc3c2=O)c1` (stereo not given) yielded a viability index of 1.
